# From PMC12136788
# Some of the results follow.
# T1: UNK ZnF1-3 (human, UniProt Q9C0B0 31-174)
# T1 sequence: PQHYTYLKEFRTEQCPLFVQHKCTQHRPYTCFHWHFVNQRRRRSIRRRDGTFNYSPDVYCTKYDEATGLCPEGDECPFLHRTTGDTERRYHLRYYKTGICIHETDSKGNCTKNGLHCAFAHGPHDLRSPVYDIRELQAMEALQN
# B1: chr6:40197388:40197389:+_ENSMUSG00000057716_ENSMUST00000061740|mus_mus|mus_mus_mus_hu_False|28_88 (ssRNA)
# RNA: GGGAGUUCUACAGUCCGACGAUCGAGACACUGGGGUGGAUUUAUUCUCAGUUUGGGUGGGUGCUAGCCACUAAGACUGUUAUUUUGGGAUUCAUGGCCUUGAAUAUCAAGAGGAAAAGGAAGAGGAUGGAAAGAGUCAAGAGUCAACAGAGGAUUGAGCAUCA
# B2: chr2:217001844:217001845:+_ENSG00000079246_ENST00000392132|hu_hu|hu_hu_hu_mus_False|28_68 (ssRNA)
# RNA: GGGAGUUCUACAGUCCGACGAUCACCAACUUGAGGAUUAGAUCUUUUGUCAUAAGCAUAUCGGACGAUGGCCACCAUGUUUAACUCAUCCAAAGCAUGAACGAGAGAGGAAAGUGCAACAGCUGCCGCCUCAUCAUCCUUUGCCAACAGAGGAUUGAGCAUCA
# B3: chr4:65274301:65274302:+_ENSMUSG00000051675_ENSMUST00000050850|mus_mus|FALSE|FALSE (ssRNA)
# RNA: GGGAGUUCUACAGUCCGACGAUCGUGCAGCAGCUUGGGUCGCAGCUGCUCUUCAGUGAAGGACUCCAUGCAGAUGGGACAUUCUAGCACUUCCCGGAGGGCAUCCAGGUUCAGGUGAGAAGCUGCUGCAGCCGCAGCCAUUGCCAACAGAGGAUUGAGCAUCA
# B4: chr8:95500983:95500984:-_ENSG00000164944_ENST00000437199|hu_hu|hu_hu_hu_mus_True|98_98 (ssRNA)
# RNA: GGGAGUUCUACAGUCCGACGAUCAGAACACAUCUAUUCGUGUAAAGACCGUACAUGACGGCCUCUACCACUGCCUCCACUAACAAACUUUCCUCUCGAGCCUCCACUGCCGCUAUUUGUACUAGCCCAGGACGGUCCCAGGCCCAACAGAGGAUUGAGCAUCA
# B5: 120130817_120169532_478_3pUTR_ENSG00000163430_ENST00000295633|human|control|control (ssRNA)
# RNA: GGGAGUUCUACAGUCCGACGAUCGAGGUUUGCAUUGCUCAAUGCAGAGACAGGUGGGUUCCCCUUUCUCUGUGACUGCACAUUCCCGGCCGGCUCCACAAAACACAUUGGCACAGAUCUUGGAUUUGCUCCUUAGCUCUUCCUCAACAGAGGAUUGAGCAUCA
# B6: 32097623_32097985_2494_CDS_ENSG00000165322_ENST00000344936|human|control|control (ssRNA)
# RNA: GGGAGUUCUACAGUCCGACGAUCUGGCAACUGUCUGAUUAGGUCCUUAACAGCAGCGACUCGCUGUCUUGGUUCUUGCUUAAUUGCAUUAACAAAAUCAUUAAAAUGAUUAAAUGUAAAAAGAGGUUCUGGUAAUUCUCGAAACAACAGAGGAUUGAGCAUCA
# B7: chr8:117878989:117878990:-_ENSG00000164754_ENST00000297338|hu_hu|hu_hu_hu_mus_True|38_58 (ssRNA)
# RNA: GGGAGUUCUACAGUCCGACGAUCCCAGAGGCCCUCGUUUACUGAGGACAAAAUGUGCGUAGAACAUUUUUCUUAUUGGCUAUGAAAUAAGAAGAAAACCUUGCUCUGGCGGGGAGCCGGGAGGGGUGGGUGGCCCGGGGAGGGCAACAGAGGAUUGAGCAUCA
# B8: 183621111_183622453_1677_3pUTR_ENSG00000077232_ENST00000418559|human|control|control (ssRNA)
# RNA: GGGAGUUCUACAGUCCGACGAUCUCUAUACUGCCCACGUUGAUCAGUCCAGUUAAUGUCCGGGCCAUUCUUUUCCAUUCUGGCAUUAAGACUUGGCAAGGAUGACACCACGGAGAAUAGAAAUCAACCAUCCAGACUUCGUUGCAACAGAGGAUUGAGCAUCA
# B9: chr1:137268451:137268452:-_ENSMUSG00000041889_ENSMUST00000041240|mus_hu|FALSE|FALSE (ssRNA)
# RNA: GGGAGUUCUACAGUCCGACGAUCGGGGCCUGGUGGCUGGAGGACUCCUGCCACCCCCAGGACCAGAUGCAGGUACAGGAUGAGGGCAUCUCCCAAGGUUGGCAUCACUGAAGGGGCAGCAGAGACAUGGCUGGUUCCUCAGGCCAACAGAGGAUUGAGCAUCA
# B10: 59925189_59925309_2213_CDS_ENSG00000134444_ENST00000256858|human|control|control (ssRNA)
# RNA: GGGAGUUCUACAGUCCGACGAUCGUCUGGAUCAUCAAUGUAUCCCAUAAUGAUACCAAGGCUUUUGAUAACAGCUUCUCUUACCAAAUCUGCCUUAUCUUCCAUUAACAUUUGUUGCAACAUUGAAAGAACCAAGGAGCUACGCAACAGAGGAUUGAGCAUCA
# B11: chr2:144079538:144079539:-_ENSMUSG00000027423_ENSMUST00000110030|mus_mus|FALSE|FALSE (ssRNA)
# RNA: GGGAGUUCUACAGUCCGACGAUCGGCCUUGUCCAAAGCUUUGUUUGAAUUCUCAUAGUCAAUUAGGGCUUUGGUACGUCUAUACAAGAGAUCCUUUGCAGCCUCUAUGUUGAGCAUGUAGUAUCGGAGGAGCUCUGUCAGUUUCAACAGAGGAUUGAGCAUCA
# B12: chr9:95013113:95013114:-_ENSG00000196305_ENST00000443024|hu_hu|hu_hu_hu_mus_False|18_68 (ssRNA)
# RNA: GGGAGUUCUACAGUCCGACGAUCCUCAGUCAGAAAGGGCGUGUAAGGGGCCAUCAGUCUGCACAGAGAAAGCAGAACACUGAACAGUGUCUCCAGAGCCAUGACACAGUCUUCCACCCCAUUUUCACCCUUUAACCUCCUCCUCAACAGAGGAUUGAGCAUCA
# B13: chr4:9557972:9557973:-_ENSMUSG00000028207_ENSMUST00000146441|mus_mus|FALSE|FALSE (ssRNA)
# RNA: GGGAGUUCUACAGUCCGACGAUCACCAUCAACACCAUCUGCAGUUUCGCUUUCUUCUUCCUCUUCUUCUAGCAUUUCAAAAGGAGUCAUUAUAUCAUAGAGAAAUGAGAGGAAACCAUAAAACCAAUCUGAACUCUCCUCCGCCAACAGAGGAUUGAGCAUCA
# B14: chr16:29649037:29649038:+_ENSMUSG00000038084_ENSMUST00000160597|mus_hu|FALSE|FALSE (ssRNA)
# RNA: GGGAGUUCUACAGUCCGACGAUCUUUAAUUUAUUUCUCCUGAUGAAGAGCUUCAAUGAAAGCAUCAAGUUUUUCUUGAAUUUCUCUAACUUUCUUGAGGUCUUCCGCCAGUUGAACGCGUUUACCAGUAAGCAAUUUAAUCUUCAACAGAGGAUUGAGCAUCA
# B15: chr3:57569700:57569701:-_ENSG00000168374_ENST00000303436|hu_hu|motif|central (ssRNA)
# RNA: GGGAGUUCUACAGUCCGACGAUCCACAAAAAUAAGACCCUGGGUAUUCUGGAAGUAAUGCUUCCAGAGAGGCCUAAUUCGGUCUUGACCACCAACAUCCCAUACUGUGAAACAAAUGUUCUUAUAUUCUACUGUUUCCACAUUCAACAGAGGAUUGAGCAUCA
# B16: chr4:17845017:17845018:+_ENSG00000109805_ENST00000514176|hu_mus|hu_hu_hu_mus_False|8_28 (ssRNA)
# RNA: GGGAGUUCUACAGUCCGACGAUCGCUCUCUUAACUUGUAUCUUCAUUAAGGAACUCUGCAAGGUUAAGUUUACUUUUCUGUAGCGCAGCUGUUUUGGCUCGUCUGGUAGUCUCAUCCUUCAUUUCUAUUCUGGUUCCAUGAUCCAACAGAGGAUUGAGCAUCA
# B17: chr6:128383251:128383252:-_ENSMUSG00000030357_ENSMUST00000032508|mus_hu|motif|central (ssRNA)
# RNA: GGGAGUUCUACAGUCCGACGAUCGUUGAGGUGAGAGGCCAGUCGAAGGGCCUGUGCUUUCUGUGCUUCCUCAUUGGAAAAACGGGACUCAUAUUCCAGCCAAGACACGAUCUUCUUAUACUGUAGUAAAGCUUGCUUGUAUUUCAACAGAGGAUUGAGCAUCA
# B18: chr13:100194276:100194277:-_ENSMUSG00000052727_ENSMUST00000064762|mus_mus|FALSE|FALSE (ssRNA)
# RNA: GGGAGUUCUACAGUCCGACGAUCAACCUUAAAAAAACUUCAAUUUUUGUCUUACAAAAAACACUUAAAAUAAUAAUUAAAAAGAAAGACCAUCGUUUCAAAAUUUUCUUUGCGUUUUCCUGUAAAUGAAAACAUUUGUUAAAACAACAGAGGAUUGAGCAUCA
# B19: 132614770_132615660_474_CDS_ENSMUSG00000030750_ENSMUST00000033006|mouse|control|control (ssRNA)
# RNA: GGGAGUUCUACAGUCCGACGAUCCAGAGCCUUUCUAAACAGAUCCAGCUCGUUCUCUGCAAAAUCCGUAGCCAUUUUGGAAACUGAAGUUGUAGCAAGAUUCACCAGUGCAUAAAUGGGUCUCCCAUCAUCUUCCGUGACUCCCAACAGAGGAUUGAGCAUCA
# B20: chr6:124662746:124662747:+_ENSMUSG00000004264_ENSMUST00000004375|mus_hu|FALSE|FALSE (ssRNA)
# RNA: GGGAGUUCUACAGUCCGACGAUCCUCGGCCAGGAUAGUGUCCUGCUGCACUCCACCGAUCCGAUUGAAGAAGAUGGCUCUGUGCCCGCCUUCCACGGUGAACACAGAUUCGCGCACACCGUAGGCCACGGCGCCGGCCCCCAGCAACAGAGGAUUGAGCAUCA
# B21: 46321053_46321173_2604_CDS_ENSG00000139218_ENST00000369367|human|control|control (ssRNA)
# RNA: GGGAGUUCUACAGUCCGACGAUCUUCUUGUGGAGUGUCUUUGUUGGGUGACCAAGUUGUAGAUGGAGAAUGAAAUCUAGAUCUUCGAGUACGAGGCUUUUUGGUUUUAUCUAUGGUAUCUUUUGGGCUUUCAGAUGGUUGAGACAACAGAGGAUUGAGCAUCA
# B22: chr15:103023242:103023243:-_ENSMUSG00000009575_ENSMUST00000118152|mus_mus|motif|central (ssRNA)
# RNA: GGGAGUUCUACAGUCCGACGAUCAACUAGCAGCAUUGAUGAGGGGUUAAGGGAUUGGGGACAGAAACUCACCAAGGUCACGGAGUACUUCCAAACUUGGAAGUAGCUCAGUGAGGGCUAAAAAAACUUCGACUGAAGGUAUCCCAACAGAGGAUUGAGCAUCA
# Biological target: T1, UNK ZnF1-3
# Assay: nsRBNS (natural sequence RNA bind-n-seq); RBNS binding buffer (assumed for nsRBNS): 25 mM Tris pH 7.5, 150 mM KCl, 3 mM MgCl2, 0.01% Triton X-100, 500 ug/ml BSA, 20 U/ml SUPERase-In, 4 C; UNK is unkempt and MSI1 is Musashi-1; names of the RNAs are library labels; protein concentration not given here; high values mean tight binding
row,Binder,binding signal
1,B1,1.74 enrichment R
2,B2,1.6 enrichment R
3,B3,0.633 enrichment R
4,B4,0.956 enrichment R
5,B5,0.615 enrichment R
6,B6,0.936 enrichment R
7,B7,1.41 enrichment R
8,B8,0.729 enrichment R
9,B9,2.43 enrichment R
10,B10,0.769 enrichment R
11,B11,1.07 enrichment R
12,B12,1.2 enrichment R
13,B13,1.73 enrichment R
14,B14,0.6 enrichment R
15,B15,0.619 enrichment R
16,B16,0.393 enrichment R
17,B17,0.825 enrichment R
18,B18,1.15 enrichment R
19,B19,1.02 enrichment R
20,B20,0.653 enrichment R
21,B21,0.862 enrichment R
22,B22,1.29 enrichment R
